Assay results: patent publication US20260092099A1 (SPIN THERAPEUTICS, published 2026)

T1: human neutrophil elastase (human, UniProt P08246 30-247, limits assumed)
T1 sequence (looked up): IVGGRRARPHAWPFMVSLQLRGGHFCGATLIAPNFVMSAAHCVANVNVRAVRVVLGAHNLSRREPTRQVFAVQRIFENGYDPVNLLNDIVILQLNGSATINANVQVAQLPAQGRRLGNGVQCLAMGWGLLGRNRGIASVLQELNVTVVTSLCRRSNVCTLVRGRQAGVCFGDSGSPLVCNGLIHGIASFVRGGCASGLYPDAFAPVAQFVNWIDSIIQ


Biological target: T1, human neutrophil elastase
Experiment: cell-based or functional assay

Row | Binder | IC50 (nM), neutrophil elastase inhibitory assay [nM]
1 | AAT-albumin fusion, base C232S, M351V, M358L with G117F/S283C/P361C (other) EDPQGDAAQKTDTSHHDQDHPTFNKITPNLAEFAFSLYRQLAHQSNSTNIFFSPVSIATAFAMLSLGTKADTHDEILEGLNFNLTEIPEAQIHEGFQELLRTLNQPDSQLQLTTGNFLFLSEGLKLVDKFLEDVKKLYHSEAFTVNFGDTEEAKKQINDYVEKGTQGKIVDLVKELDRDTVFALVNYIFFKGKWERPFEVKDTEEEDFHVDQVTTVKVPMMKRLGMFNIQHSKKLSSWVLLMKYLGNATAIFFLPDEGKLQHLENELTHDIITKFLENEDRRCASLHLPKLSITGTYDLKSVLGQLGITKVFSNGADLSGVTEEAPLKLSKAVHKAVLTIDEKGTEAAGAVFLEAIPLSICPEVKFNKPFVFLMIEQNTKSPLFMGKVVNPTQKGGSGGSGGSGGSGG[skipping about 600 residues] | 20.1
2 | AAT-albumin fusion, base C232S, M351V, M358L with G117F/K168C/F189C (other) EDPQGDAAQKTDTSHHDQDHPTFNKITPNLAEFAFSLYRQLAHQSNSTNIFFSPVSIATAFAMLSLGTKADTHDEILEGLNFNLTEIPEAQIHEGFQELLRTLNQPDSQLQLTTGNFLFLSEGLKLVDKFLEDVKKLYHSEAFTVNFGDTEEAKKQINDYVEKGTQGCIVDLVKELDRDTVFALVNYICFKGKWERPFEVKDTEEEDFHVDQVTTVKVPMMKRLGMFNIQHSKKLSSWVLLMKYLGNATAIFFLPDEGKLQHLENELTHDIITKFLENEDRRSASLHLPKLSITGTYDLKSVLGQLGITKVFSNGADLSGVTEEAPLKLSKAVHKAVLTIDEKGTEAAGAVFLEAIPLSIPPEVKFNKPFVFLMIEQNTKSPLFMGKVVNPTQKGGSGGSGGSGGSGG[skipping about 600 residues] | 29.1
3 | AAT-albumin fusion, base C232S, M351V, M358L with F51L/K168C/F189C (other) EDPQGDAAQKTDTSHHDQDHPTFNKITPNLAEFAFSLYRQLAHQSNSTNILFSPVSIATAFAMLSLGTKADTHDEILEGLNFNLTEIPEAQIHEGFQELLRTLNQPDSQLQLTTGNGLFLSEGLKLVDKFLEDVKKLYHSEAFTVNFGDTEEAKKQINDYVEKGTQGCIVDLVKELDRDTVFALVNYICFKGKWERPFEVKDTEEEDFHVDQVTTVKVPMMKRLGMFNIQHSKKLSSWVLLMKYLGNATAIFFLPDEGKLQHLENELTHDIITKFLENEDRRSASLHLPKLSITGTYDLKSVLGQLGITKVFSNGADLSGVTEEAPLKLSKAVHKAVLTIDEKGTEAAGAVFLEAIPLSIPPEVKFNKPFVFLMIEQNTKSPLFMGKVVNPTQKGGSGGSGGSGGSGG[skipping about 600 residues] | 23.3

The remaining lines, values ahead:

Row | IC50 (nM), neutrophil elastase inhibitory assay [nM] | Binder
4 | 28 | AAT-albumin fusion, base C232S, M351V, M358L with K331F/K168C/F189C (other) EDPQGDAAQKTDTSHHDQDHPTFNKITPNLAEFAFSLYRQLAHQSNSTNIFFSPVSIATAFAMLSLGTKADTHDEILEGLNFNLTEIPEAQIHEGFQELLRTLNQPDSQLQLTTGNGLFLSEGLKLVDKFLEDVKKLYHSEAFTVNFGDTEEAKKQINDYVEKGTQGCIVDLVKELDRDTVFALVNYICFKGKWERPFEVKDTEEEDFHVDQVTTVKVPMMKRLGMFNIQHSKKLSSWVLLMKYLGNATAIFFLPDEGKLQHLENELTHDIITKFLENEDRRSASLHLPKLSITGTYDLKSVLGQLGITKVFSNGADLSGVTEEAPLKLSFAVHKAVLTIDEKGTEAAGAVFLEAIPLSIPPEVKFNKPFVFLMIEQNTKSPLFMGKVVNPTQKGGSGGSGGSGGSGG[skipping about 600 residues]
5 | 23.5 | AAT-albumin fusion, base C232S, M351V, M358L with K168C/F189C (other) EDPQGDAAQKTDTSHHDQDHPTFNKITPNLAEFAFSLYRQLAHQSNSTNIFFSPVSIATAFAMLSLGTKADTHDEILEGLNFNLTEIPEAQIHEGFQELLRTLNQPDSQLQLTTGNGLFLSEGLKLVDKFLEDVKKLYHSEAFTVNFGDTEEAKKQINDYVEKGTQGCIVDLVKELDRDTVFALVNYICFKGKWERPFEVKDTEEEDFHVDQVTTVKVPMMKRLGMFNIQHSKKLSSWVLLMKYLGNATAIFFLPDEGKLQHLENELTHDIITKFLENEDRRSASLHLPKLSITGTYDLKSVLGQLGITKVFSNGADLSGVTEEAPLKLSKAVHKAVLTIDEKGTEAAGAVFLEAIPLSIPPEVKFNKPFVFLMIEQNTKSPLFMGKVVNPTQKGGSGGSGGSGGSGG[skipping about 600 residues]
